Results published in PMC4336329 (PLoS ONE, 2015).
In all, about 310,000 compounds went through this assay and about 2,200 (0.71%) showed an effect of 50% or more. Effects have a minus sign here. The list shows a part of the results.

Target: human ether-à-go-go-related gene (hERG) potassium channel (human, UniProt Q12809)
Experiment: primary screen, population patch clamp on CHO cells stably expressing hERG

Chain of human ether-à-go-go-related gene (hERG) potassium channel (Q12809 whole entry, looked up): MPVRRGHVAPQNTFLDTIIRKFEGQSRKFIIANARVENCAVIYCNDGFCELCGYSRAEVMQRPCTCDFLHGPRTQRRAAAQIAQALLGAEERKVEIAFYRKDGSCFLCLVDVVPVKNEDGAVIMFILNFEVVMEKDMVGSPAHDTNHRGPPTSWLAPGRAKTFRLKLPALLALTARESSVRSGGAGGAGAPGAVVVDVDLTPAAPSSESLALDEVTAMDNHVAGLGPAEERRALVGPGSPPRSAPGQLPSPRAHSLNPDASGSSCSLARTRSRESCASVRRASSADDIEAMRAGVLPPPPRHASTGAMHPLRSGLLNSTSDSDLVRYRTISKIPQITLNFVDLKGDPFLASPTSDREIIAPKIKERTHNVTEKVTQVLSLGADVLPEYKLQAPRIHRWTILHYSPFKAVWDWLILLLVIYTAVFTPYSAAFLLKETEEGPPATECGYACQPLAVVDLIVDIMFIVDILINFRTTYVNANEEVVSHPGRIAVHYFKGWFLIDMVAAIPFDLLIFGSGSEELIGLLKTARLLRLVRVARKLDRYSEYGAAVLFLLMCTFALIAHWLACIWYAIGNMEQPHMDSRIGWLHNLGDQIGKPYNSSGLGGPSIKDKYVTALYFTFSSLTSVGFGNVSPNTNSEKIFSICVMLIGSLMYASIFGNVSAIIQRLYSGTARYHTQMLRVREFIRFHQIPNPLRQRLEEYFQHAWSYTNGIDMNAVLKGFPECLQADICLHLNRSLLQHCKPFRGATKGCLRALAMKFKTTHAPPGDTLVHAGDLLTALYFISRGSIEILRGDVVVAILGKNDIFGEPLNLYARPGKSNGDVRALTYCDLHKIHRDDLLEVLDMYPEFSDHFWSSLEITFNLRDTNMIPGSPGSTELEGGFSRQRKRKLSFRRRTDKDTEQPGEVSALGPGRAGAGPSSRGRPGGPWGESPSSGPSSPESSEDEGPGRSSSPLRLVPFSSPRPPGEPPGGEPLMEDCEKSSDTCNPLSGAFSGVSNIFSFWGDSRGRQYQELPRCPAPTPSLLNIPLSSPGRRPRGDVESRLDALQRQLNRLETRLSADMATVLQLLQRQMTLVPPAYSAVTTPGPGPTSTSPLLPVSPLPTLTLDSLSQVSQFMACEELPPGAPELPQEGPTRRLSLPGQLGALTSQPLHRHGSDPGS

First: COc1ccc(-c2cc3nc(C)c(CCC(=O)NCc4ccc(F)cc4)c(C)n3n2)c(OC)c1
Second: CCOC(=O)C1=C(C)Nc2ccccc2N=C1NC(=O)Cc1ccc(OC)cc1
The “hERG current change (%, negative = inhibition) at 1uM” value of the first is lower: -32.7% for the first, 29.2% for the second.

Going from `COc1cc(NS(=O)(=O)c2ccc(NC(=O)C3CCCO3)cc2)nc(OC)n1` (stereo not drawn) to `O=C(Nc1nc2ccc(S(=O)(=O)N3CCCCC3)cc2s1)C1CCCO1` (stereo not drawn), the “hERG current change (%, negative = inhibition) at 1uM” value rises from -1.04% to 7.35%.

First: COc1ccc(CNC(=O)N2CCc3ccccc3C2)cc1Cl
Second: COc1ccccc1CC(=O)N1CCCc2ccccc21
The “hERG current change (%, negative = inhibition) at 1uM” value of the first is lower: 15.5% for the first, 15.7% for the second.

Going from `Cc1ccc(C(=O)Nc2ccccc2)cc1S(=O)(=O)Nc1ccc(Cl)cn1` to `CCc1nnc(NS(=O)(=O)c2ccc(NC(=O)/C=C/c3ccccc3Cl)cc2)s1`, the “hERG current change (%, negative = inhibition) at 1uM” value falls from 9.06% to -0.157%.

Going from `N#Cc1ccccc1NC(=S)NC(=O)C1CCC1` to `Cc1ccc(/C=C/C(=O)NC(=S)Nc2ccccc2C(=O)NC2CCCCC2)cc1`, the “hERG current change (%, negative = inhibition) at 1uM” value rises from 8.91% to 14.3%.

Going from `O=C(CSc1nc(N2CCOCC2)nc(N2CCOCC2)n1)Nc1ccc([N+](=O)[O-])cc1` to `COc1ccccc1NC(=O)Nc1ccc(N2CCOCC2)cc1`, the “hERG current change (%, negative = inhibition) at 1uM” value rises from -4.4% to 10.4%.

Compared with `CCCCNc1nc(-c2ccccc2)nc(-n2ccnc2)n1`, `Clc1nc2c(-c3ccccc3)nnn2c2ccccc12` is lower in “hERG current change (%, negative = inhibition) at 1uM” value: 14% for the first, 8.57% for the second.

Compared with `CCOc1ccc(-n2c(=O)[nH]c3sc4c(c3c2=O)CCCC4)cc1`, `O=C(CN1C(=O)NC2(CCCC2)C1=O)OCc1ccc(Br)cc1` is lower in “hERG current change (%, negative = inhibition) at 1uM” value: 12.6% for the first, 9.07% for the second.

Going from `Cl.O=C(Nc1nnc(CCN2CCCCC2)s1)c1ccccc1` to `O=C(c1ccccc1Cl)N1CCN(S(=O)(=O)N2CCCCC2)CC1`, the “hERG current change (%, negative = inhibition) at 1uM” value falls from 15.5% to 15.1%.

Going from `O=C(Cc1ccc(Br)cc1)N1CCN(C(=O)c2ccco2)CC1` to `O=C(c1ccco1)N1CCN(Cc2cc(=O)c(OCc3cccc(F)c3)co2)CC1`, the “hERG current change (%, negative = inhibition) at 1uM” value falls from -7.27% to -29.3%.

First: COCCNC(=O)c1cccc(S(=O)(=O)N2CC3(C)CC2CC(C)(C)C3)c1 (stereo not drawn)
Second: CC(C)OCCCNC(=O)C1CCC(CNS(=O)(=O)c2ccccc2)CC1 (stereo not drawn)
The “hERG current change (%, negative = inhibition) at 1uM” value of the first is higher: 12% for the first, 5.45% for the second.

First: Cn1cccc1/C=N/N1CCN(Cc2ccc(Cl)cc2)CC1
Second: CCOC(=O)N1CCN(CC(O)COc2ccc(-c3ccccc3)cc2)CC1.Cl (stereo not drawn)
The “hERG current change (%, negative = inhibition) at 1uM” value of the first is lower: 3.9% for the first, 5.91% for the second.

Compared with `CCCCc1ccc(NC(=S)NCCc2ccc(F)cc2)cc1`, `O=C(CCCc1ccccc1)NCCc1cnc[nH]1` is lower in “hERG current change (%, negative = inhibition) at 1uM” value: 16% for the first, 10.1% for the second.

Compared with `Cc1ccc(S(C)(=O)=O)cc1C(=O)OCC(=O)N(Cc1ccccc1)Cc1ccccc1`, `O=C(COC(=O)Cc1ccccc1)NCCNC(=O)COC(=O)Cc1ccccc1` is lower in “hERG current change (%, negative = inhibition) at 1uM” value: 7.49% for the first, 2.05% for the second.

First: CC1CC1C(=O)Nc1cc(S(=O)(=O)N2CCOCC2)ccc1N1CCCC1 (stereo not drawn)
Second: Cc1cc(C)c(NC(=O)c2ccc(S(=O)(=O)N3CCOCC3)cc2)c(C)c1
The “hERG current change (%, negative = inhibition) at 1uM” value of the first is lower: 4.55% for the first, 10.4% for the second.

Going from `N#Cc1cn(OCc2ccccc2)c(=O)[nH]c1=O` to `N#Cc1ccc(Oc2ccc(/C=N/O)cn2)cc1`, the “hERG current change (%, negative = inhibition) at 1uM” value falls from 10.9% to -9.63%.

First: CCCCCCN(C(=O)CCCCCN1C(=O)NC(c2ccc(-c3ccccc3)cc2)C(C(=O)OCc2ccccc2)=C1C)C(C(=O)NCCCC)c1ccc(OCC(=O)OC)cc1 (stereo not drawn)
Second: NC(=O)c1nsc(C(=O)N(c2ccccc2F)C(C(=O)NCc2ccccc2)c2ccc(O)cc2)c1N (stereo not drawn)
The “hERG current change (%, negative = inhibition) at 1uM” value of the first is higher: 16.7% for the first, 8.51% for the second.

First: COc1ccc(-c2cc(C(=O)NCC3CCCO3)c3cc(C(C)C)ccc3n2)cc1 (stereo not drawn)
Second: Cc1cccn2c(=O)c3cc(C(=O)NCC4CCCO4)c(=N)n(CCc4ccccc4)c3nc12 (stereo not drawn)
The “hERG current change (%, negative = inhibition) at 1uM” value of the first is higher: 16% for the first, -84.4% for the second.

Compared with `COCCNc1ncnc2c1cnn2-c1ccc(Cl)cc1`, `Cc1ccc(C(=O)OCC(=O)NNC(=O)COc2ccc(Cl)cc2)c(O)c1` is higher in “hERG current change (%, negative = inhibition) at 1uM” value: -16.2% for the first, 11.4% for the second.

First: COc1ccccc1C(=O)N(CCN(C)C)c1nc2cc(C)cc(C)c2s1.Cl
Second: CCc1ccccc1NC(=S)N(CCN(C)C)Cc1cccs1
The “hERG current change (%, negative = inhibition) at 1uM” value of the first is lower: -39.8% for the first, 5.15% for the second.

First: CC(Oc1cc2oc(=O)c3c(c2cc1Cl)CCC3)C(=O)NCCCn1ccnc1 (stereo not drawn)
Second: Cc1cccn2c(=O)c3cc(C(=O)NCC4CCCO4)c(=N)n(C4CCCCC4)c3nc12 (stereo not drawn)
The “hERG current change (%, negative = inhibition) at 1uM” value of the first is higher: 7.41% for the first, -83.7% for the second.

First: COc1ccc(/C=C/C(=O)c2ccc[nH]2)c(OC)c1OC
Second: COc1cccc(OC)c1NC(=O)CN(C)S(=O)(=O)c1ccc2c(c1)OCCO2
The “hERG current change (%, negative = inhibition) at 1uM” value of the first is lower: 4.5% for the first, 5.52% for the second.

Compared with `Br.Fc1cccc(CNCC2CCCO2)c1` (stereo not drawn), `CC(C)C(=O)c1cn(CC(=O)NCC2CCCO2)c2ccccc12` (stereo not drawn) is lower in “hERG current change (%, negative = inhibition) at 1uM” value: 13.4% for the first, 13% for the second.

Going from `O=C(COC(=O)COc1ccccc1)NC12CC3CC(CC(C3)C1)C2` to `CC(CC(=O)Nc1cc(S(=O)(=O)N2CCOCC2)ccc1OCC(F)(F)F)c1ccccc1` (stereo not drawn), the “hERG current change (%, negative = inhibition) at 1uM” value falls from 3.72% to -11.8%.

Going from `Cc1nc2ccc(S(=O)(=O)NCC(=O)NC(C)c3ccccc3)cc2s1` (stereo not drawn) to `CC(=O)CC(c1ccccc1)S(=O)(=O)c1ccc(C)cc1` (stereo not drawn), the “hERG current change (%, negative = inhibition) at 1uM” value falls from 9.38% to 5.76%.

First: Clc1ccc(-c2ccc(-c3nn4c(-c5ccco5)nnc4s3)o2)cc1
Second: Cc1c(NC(=O)CSc2ccc(Cl)cc2)cccc1-c1nc2cc(Cl)ccc2o1
The “hERG current change (%, negative = inhibition) at 1uM” value of the first is lower: 6.98% for the first, 7.19% for the second.

Going from `CCCn1c(CCC(=O)Nc2ccccc2Cc2ccccc2)nc2cc(S(=O)(=O)N3CCOCC3)ccc21` to `O=C(Nc1ccc2c(c1)CCC2)c1cc(S(=O)(=O)N2CCN(c3ccccc3)CC2)ccc1Cl`, the “hERG current change (%, negative = inhibition) at 1uM” value rises from 1.03% to 4.32%.

Going from `Cl.O=C1CC2(CCCC2)CC(=O)N1CCCCN1CCN(c2ncccn2)CC1` to `CCN(CC)CCNC1=CC(=O)OC12CCCCC2`, the “hERG current change (%, negative = inhibition) at 1uM” value rises from -10.5% to 9.31%.

Compared with `Cc1cccc(N(CC(=O)NC2CCCC2)C(=O)c2csnn2)c1C`, `Cc1cc(C)cc(N(C(=O)CNC(=O)c2ccco2)C(C(=O)NC2CCCC2)c2ccncc2)c1` (stereo not drawn) is lower in “hERG current change (%, negative = inhibition) at 1uM” value: 16.1% for the first, -4.9% for the second.

Going from `OC(CNCC1COc2ccccc2O1)COc1ccccc1F` (stereo not drawn) to `O=C(O)CN(c1ccc2c(c1)OCCO2)S(=O)(=O)c1ccccc1`, the “hERG current change (%, negative = inhibition) at 1uM” value falls from 16.9% to 13.3%.

Compared with `CCOC(=O)C1CCCN(Cc2cccc(Cl)c2)C1` (stereo not drawn), `COc1cccc(-c2cccc(NC(=O)C3CCN(C4CCC4)CC3)c2)c1` is lower in “hERG current change (%, negative = inhibition) at 1uM” value: 13.2% for the first, -17.5% for the second.

Going from `Cc1ccc(CS(=O)(=O)Cc2ccc(C(=O)NCc3ccco3)o2)cc1` to `Cc1ccc(NC(=O)Nc2ccnc(-c3cccnc3)n2)cc1`, the “hERG current change (%, negative = inhibition) at 1uM” value rises from -4.57% to -0.274%.

Compared with `Cc1ccc(NC(=O)c2cc(NC(=O)/C=C\C(=O)O)ccc2N2CCCCC2)cc1`, `Cc1ccc(C(O)CN2C3=NCCCN3c3ccccc32)cc1.Cl` (stereo not drawn) is lower in “hERG current change (%, negative = inhibition) at 1uM” value: 8.13% for the first, -51.4% for the second.

Compared with `Cc1ccc(OCc2nnc(SCC(=O)O)n2N)cc1`, `CCOC(=O)c1c(-c2ccc(C)cc2)cn2ccccc12` is lower in “hERG current change (%, negative = inhibition) at 1uM” value: 19.5% for the first, 11.1% for the second.

Compared with `Cc1cc(OCC(=O)NNC(=S)NCC2CCCO2)cc(C)c1Cl` (stereo not drawn), `CCN(CC(=O)Nc1ccc2c(c1)OCCO2)C(=O)COc1cc(C)ccc1Cl` is lower in “hERG current change (%, negative = inhibition) at 1uM” value: 15% for the first, 9.28% for the second.

Compared with `CC(=O)Nc1ccc(NC(=O)CN(c2ccc(F)cc2)S(=O)(=O)c2ccc3c(c2)OCCO3)cc1`, `CCOC(=O)[C@@H]1[C@H]2COc3ccc(Br)cc3[C@H]2N2C(=O)N(c3ccc(C)cc3)C(=O)[C@]12C` is lower in “hERG current change (%, negative = inhibition) at 1uM” value: 7.23% for the first, 4.94% for the second.

Compared with `O=C1Nc2ccccc2/C1=C/c1ccccc1Cl`, `CC[n+]1ccccc1/C=C1\Sc2ccc(C)cc2N1C.[I-]` is lower in “hERG current change (%, negative = inhibition) at 1uM” value: 14% for the first, -7.34% for the second.

Going from `Cc1ccc(NC(=O)CCC(=O)O)cc1F` to `Cc1ccc(C(=O)N/N=C\c2ccc[nH]2)cc1[N+](=O)[O-]`, the “hERG current change (%, negative = inhibition) at 1uM” value falls from 8.6% to 8.21%.

First: COc1cccc(CN2CCSCC2)c1OC
Second: COc1cc2cc(CN(CCCN3CCOCC3)C(=O)Nc3ccccc3F)c(=O)[nH]c2cc1OC
The “hERG current change (%, negative = inhibition) at 1uM” value of the first is lower: 8.83% for the first, 22.5% for the second.

Compared with `N#CNC(=Nc1cccc(F)c1)SCc1cccc(F)c1`, `Cc1cccc(OCCCSc2nc3ccc(C)cc3[nH]2)c1` is higher in “hERG current change (%, negative = inhibition) at 1uM” value: 6.12% for the first, 16.2% for the second.

Compared with `CCOC(=O)Cc1nnc(NC(=O)CSc2nnc3c4ccccc4n(C)c3n2)s1`, `COc1ccc(CCNC(=O)c2nn(C)c3c2CS(=O)(=O)c2ccccc2-3)cc1OC` is higher in “hERG current change (%, negative = inhibition) at 1uM” value: -2.99% for the first, 10.5% for the second.

Compared with `COc1cc2c(cc1OC)C(c1ccc(C(F)(F)F)cc1)CC(=O)N2` (stereo not drawn), `Cc1noc(C)c1S(=O)(=O)N1CCN(S(=O)(=O)c2ccccc2C#N)CC1` is higher in “hERG current change (%, negative = inhibition) at 1uM” value: 5.68% for the first, 12.8% for the second.

Going from `CCCCNc1c([N+](=O)[O-])ncn1C` to `CN(C)C(CNC(=S)Nc1ccccc1)c1cccnc1` (stereo not drawn), the “hERG current change (%, negative = inhibition) at 1uM” value rises from -4.04% to 12.3%.

`O=S(=O)(NCCOCCNS(=O)(=O)c1ccccc1)c1ccccc1` was tested, and the “hERG current change (%, negative = inhibition) at 1uM” value was 9.64%.
